In all, about 310,000 compounds went through this assay and about 2,200 (0.71%) showed an effect of 50% or more. Effects have a minus sign here. This is one part of the list.

Sequence of human ether-à-go-go-related gene (hERG) potassium channel (Q12809 whole entry, looked up): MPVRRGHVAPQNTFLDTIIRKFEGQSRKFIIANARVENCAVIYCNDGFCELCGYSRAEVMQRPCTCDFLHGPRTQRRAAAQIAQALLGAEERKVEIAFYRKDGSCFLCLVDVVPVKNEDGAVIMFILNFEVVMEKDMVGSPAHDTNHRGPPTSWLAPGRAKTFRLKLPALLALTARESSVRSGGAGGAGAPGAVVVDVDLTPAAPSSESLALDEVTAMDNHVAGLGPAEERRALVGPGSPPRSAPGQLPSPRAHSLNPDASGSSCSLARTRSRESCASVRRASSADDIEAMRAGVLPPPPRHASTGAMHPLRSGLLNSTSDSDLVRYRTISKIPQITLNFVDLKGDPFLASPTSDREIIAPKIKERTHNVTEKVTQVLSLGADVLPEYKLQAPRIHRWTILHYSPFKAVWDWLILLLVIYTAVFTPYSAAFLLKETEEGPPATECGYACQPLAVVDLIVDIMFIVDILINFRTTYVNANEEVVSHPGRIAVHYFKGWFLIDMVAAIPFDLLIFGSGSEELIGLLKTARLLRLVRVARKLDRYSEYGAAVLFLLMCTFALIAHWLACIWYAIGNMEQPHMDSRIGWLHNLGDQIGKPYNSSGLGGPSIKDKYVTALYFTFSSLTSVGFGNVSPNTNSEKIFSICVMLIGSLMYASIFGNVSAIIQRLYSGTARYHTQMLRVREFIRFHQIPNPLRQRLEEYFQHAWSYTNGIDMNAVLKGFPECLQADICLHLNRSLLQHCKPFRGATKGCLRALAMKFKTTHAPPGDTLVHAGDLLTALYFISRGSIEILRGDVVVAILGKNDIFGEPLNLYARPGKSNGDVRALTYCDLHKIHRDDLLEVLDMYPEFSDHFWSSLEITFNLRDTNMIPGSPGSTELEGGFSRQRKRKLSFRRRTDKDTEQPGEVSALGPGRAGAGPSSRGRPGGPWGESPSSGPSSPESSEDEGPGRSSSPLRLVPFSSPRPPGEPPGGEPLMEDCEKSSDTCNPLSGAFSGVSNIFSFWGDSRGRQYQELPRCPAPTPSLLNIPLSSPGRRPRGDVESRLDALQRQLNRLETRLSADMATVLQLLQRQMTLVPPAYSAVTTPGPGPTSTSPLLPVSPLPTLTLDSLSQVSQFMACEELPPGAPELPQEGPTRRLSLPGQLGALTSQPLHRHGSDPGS

This assay has as its target human ether-à-go-go-related gene (hERG) potassium channel (human, UniProt Q12809). Kind of assay: primary screen, population patch clamp on CHO cells stably expressing hERG.
Consider `COC(=O)c1c(NC(=O)CSc2nnc(Cn3nnc4ccccc43)n2C)sc(C)c1C`, for which the “hERG current change (%, negative = inhibition) at 1uM” value is -1.33%.
As for `O=C(COC(=O)c1ccccc1Nc1ccccc1)Nc1ccccc1`, the “hERG current change (%, negative = inhibition) at 1uM” value was determined as 15.5%.
Turning to `CC(NC(=S)NC(=O)c1ccccc1Br)c1ccccc1` (stereo not shown), the “hERG current change (%, negative = inhibition) at 1uM” value was found to be 14.5%.
In the case of `CC(=O)c1ccccc1OCCOc1ncnc2sccc12`, the “hERG current change (%, negative = inhibition) at 1uM” value came to 3.78%.
As to `COC(=O)C[C@H]1c2ccccc2S(=O)(=O)N1C(C)C`, the “hERG current change (%, negative = inhibition) at 1uM” value was 12%.
Under `CCn1nc(C)c(NC(=O)c2cnn3c(C(F)F)cc(-c4ccccc4)nc23)c1C` stands 10.3%; under `Cc1cccc(CS(=O)(=O)c2nnc([C@H](Cc3ccccc3)NC(=O)OC(C)(C)C)o2)c1`, 2.29%.
With `COCCCNC(=O)CSc1nc2cc(S(=O)(=O)N3CCCCC3)ccc2o1`, the “hERG current change (%, negative = inhibition) at 1uM” value is listed as 11.5%.
On to `CCN(CC)S(=O)(=O)c1ccc2c(c1)nc(CCC(=O)O)n2C`, for which the “hERG current change (%, negative = inhibition) at 1uM” value is given as 6.09%.
For the compound `C/C(CC(=O)Nc1ccc2c(c1)OCCO2)=N\NC(=O)C(=O)Nc1ccccc1C`, the “hERG current change (%, negative = inhibition) at 1uM” value came out at 3.74%.
On to `COc1ccc(-n2c(-c3cccc(C)c3[N+](=O)[O-])n[nH]c2=S)cc1`, for which the “hERG current change (%, negative = inhibition) at 1uM” value was 7.34%.
`CSc1ccccc1C(=O)C1CCCN(C(=O)c2ccc(N3CCOCC3)cc2)C1` (stereo not shown): the “hERG current change (%, negative = inhibition) at 1uM” value was found to be 6.64%.
As for `O=S(=O)(NCc1ccc(Cl)cc1)c1cnc[nH]1`, the “hERG current change (%, negative = inhibition) at 1uM” value is 6.55%.
Under `Cc1cc(C)n(C(=O)COc2ccc(Cl)cc2Cl)n1` stands 6.55%; under `C=CCn1c(SCC(=O)Nc2nncs2)nnc1-c1ccco1`, 13%.
In the case of `CSCCC(NS(=O)(=O)c1ccc(C)cc1)C(=O)N1CCN(C(C)=O)CC1` (stereo not shown), the “hERG current change (%, negative = inhibition) at 1uM” value is recorded as 10.6%.
Turning to `O=C(Cc1ncc(C(F)(F)F)cc1Cl)Nc1ccc(F)cc1`, the “hERG current change (%, negative = inhibition) at 1uM” value is 13%.
In the case of `Cc1ccc(-c2csc3nc(SCC(=O)Nc4ccc(Cl)c(C(=O)O)c4)[nH]c(=O)c23)cc1`, the “hERG current change (%, negative = inhibition) at 1uM” value came out at 12.1%.
With `Cc1noc(C)c1C(=O)N1CCN(S(=O)(=O)c2cccs2)CC1`, the “hERG current change (%, negative = inhibition) at 1uM” value is reported as 16.6%.
Under `Cc1ccc(OCC(=O)Nc2ccccc2C(=O)N2CCCC2)cc1` stands -2.29%; under `CC(C)(C)c1ccc(C(=O)n2cnc3ccccc32)cc1`, 16.8%; under `CCCCN(CC)C(=O)Cc1ccccc1OC`, 18%.
Under `CN(C)C(=O)Cn1nc(-c2ccccc2)c2ccccc2c1=O` stands 9.36%.
For `Cc1cccc(NC(=O)CSc2nnc(NC(=O)c3ccc(S(=O)(=O)N4CCOCC4)cc3)s2)c1C`, the “hERG current change (%, negative = inhibition) at 1uM” value is listed as 6.13%.
As for `COC(=O)c1c(C(=O)OC)c(-c2ccc(F)cc2)n2c1CS(=O)C2` (stereo not shown), the “hERG current change (%, negative = inhibition) at 1uM” value was 20%.
For the compound `Fc1ccccc1-c1nc(-c2ccc(Cl)cc2)no1`, the “hERG current change (%, negative = inhibition) at 1uM” value turned out to be 4.28%.
For `Cc1cc(NS(=O)(=O)c2ccc(NC(=O)CCc3ccccc3)cc2)no1`, the “hERG current change (%, negative = inhibition) at 1uM” value amounted to 10.8%.
`Cn1nccc1C(=O)N1CCN(c2cccc(Cl)c2)CC1`: the “hERG current change (%, negative = inhibition) at 1uM” value is 21.2%.
For the compound `COc1ccc(C)cc1N(CC(=O)Nc1cccnc1)S(=O)(=O)c1ccccc1`, the “hERG current change (%, negative = inhibition) at 1uM” value is 0.471%.
Under `CC(=O)c1c(C)nc(-c2cccc([N+](=O)[O-])c2)n1O` stands 6.98%; under `Cc1ccc(-c2csc(N3CCC[C@@H]3C(=O)NCCn3c(-c4ccncc4)nc4ccccc43)n2)cc1`, 8.69%; under `COc1ccccc1N(Cc1ccccc1)S(=O)(=O)c1cccc(C(=O)Nc2ncccc2C)c1`, 3.97%.
As for `CC(=O)c1ccccc1N(C(=O)c1ccco1)C(C(=O)NC1CCCC1)c1ccc(N2CCOCC2)cc1` (stereo not shown), the “hERG current change (%, negative = inhibition) at 1uM” value was determined as 8.73%.
As to `CCN(Cc1nc(-c2ccccc2)no1)C(=O)c1ccco1`, the “hERG current change (%, negative = inhibition) at 1uM” value came out at 5.46%.
Under `O=C(O)CC(Cn1[nH]nnc1=S)c1ccccc1` (stereo not shown) stands -1.3%.
Under `c1ccc(/N=C2\N=C(Nc3ccccn3)c3ccccc32)nc1` stands -6.9%; under `NS(=O)(=O)c1cccc(NC(=O)CSc2nnnn2-c2ccccc2)c1`, 13.9%.
Regarding `CN(CC(=O)Nc1cccc(F)c1)C(=O)c1ccc(N2CCCCC2)c([N+](=O)[O-])c1`, the “hERG current change (%, negative = inhibition) at 1uM” value is 6.4%.
Turning to `COc1cccc(NC(=O)CCS(=O)(=O)c2cccs2)c1`, the “hERG current change (%, negative = inhibition) at 1uM” value is 15.4%.
Under `COc1ccc(-c2cc(C(F)(F)F)nc(SCCC(=O)N3CCCC3)n2)cc1` stands 7.56%.
Under `COc1cccc(CN(C)C(=O)CCc2nnc(-c3ccsc3)o2)c1` stands 9.53%.
Under `CCc1cc(-c2[nH]ncc2-c2nc3ccccc3n2C)c(O)cc1O` stands -11.1%; under `NC(=O)CC(NC(=O)c1ccc(Br)cc1)c1ccc(N2CCN(c3ccccn3)CC2)c([N+](=O)[O-])c1` (stereo not shown), 4.26%.
For the compound `COc1ccc2cc3cc(C(=O)N4CCN(c5ccccc5)CC4)oc3nc2c1`, the “hERG current change (%, negative = inhibition) at 1uM” value turned out to be 7.44%.
Under `CCN(c1ccccc1)S(=O)(=O)c1ccc(Cl)c(NC(=O)CSc2nnc(C)s2)c1` stands 10.5%; under `Cc1ccsc1/C=C1/SC(=O)N(CC(=O)N2CCOCC2)C1=O`, 5.75%; under `CCSc1nc(O)c(C2OC(=O)c3c2ccc(OC)c3OC)c(=O)n1-c1ccccc1` (stereo not shown), 11.7%.
With `CCOC(=O)Cn1cc(/C=C(\C#N)C(=O)N2CCOCC2)c2ccccc21`, the “hERG current change (%, negative = inhibition) at 1uM” value is recorded as 5.91%.
Under `Cn1cc(CN2CCCC(C(=O)c3ccc(-c4ccccc4)cc3)C2)cn1` (stereo not shown) stands -1.82%; under `Cc1cc(Br)ccc1S(=O)(=O)NCc1ccccc1`, 7.15%.
For `Cc1cc(OC(C)C(=O)NCC2CCC(C(=O)O)CC2)c2c(C)c(Cc3ccccc3)c(=O)oc2c1` (stereo not shown), the “hERG current change (%, negative = inhibition) at 1uM” value is -13.1%.
With `O=c1cc(-c2ccccc2)nc(SCc2ccc(Cl)cc2)[nH]1`, the “hERG current change (%, negative = inhibition) at 1uM” value was found to be 12.8%.
In the case of `CCOc1ccccc1Nc1nc(N)nc(CSc2nccc(C)n2)n1`, the “hERG current change (%, negative = inhibition) at 1uM” value is listed as 12.8%.
For `CSc1nncc(/C(C)=N\Nc2ccccc2C)n1`, the “hERG current change (%, negative = inhibition) at 1uM” value is listed as 4.15%.
Take `CC(=O)N(C)c1ccc(NC(=O)CCN2C(=O)c3ccccc3C2=O)cc1`: the “hERG current change (%, negative = inhibition) at 1uM” value stood at 17.1%.

These data come from paper PMC4336329 (PLoS ONE, 2015).
